# Measured values reported in the supplement of paper PMC4604168 (melanoma cell lines).
# Some of the results follow. Many values rest on one well or one pass, so single values are uncertain.
# Test system: A2058
# Assay: cell count relative to DMSO control; melanoma cells; higher = more viable cells
# Conditions: library dose: low library concentration; 72 h
# 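Note: cell number obtained by counting DAPI-stained nuclei in high-throughput microscope images with image analysis software, screen run in 1,536-well plates.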
row,Compound,cell count
1,"Nc1ncn([C@H]2C[C@H](O)[C@@H](CO)O2)c(=O)n1 [decitabine] + C/C(O)=C(\C#N)C(=O)Nc1cc(Br)ccc1Br [LFM-A13] (first compound 0.1 µM, partner dose 2 µM)",60.6%
2,"CCCCCCCCc1ccc(CCC(N)(CO)CO)cc1 [fingolimod] + C/C(O)=C(\C#N)C(=O)Nc1cc(Br)ccc1Br [LFM-A13] (first compound 2 µM, partner dose 2 µM)",86.1%
3,"CC[C@]1(O)C[C@H]2CN(CCc3c([nH]c4ccccc34)[C@@](C(=O)OC)(c3cc4c(cc3OC)N(C=O)[C@H]3[C@@](O)(C(=O)OC)[C@H](OC(C)=O)[C@]5(CC)C=CCN6CC[C@]43[C@@H]65)C2)C1 [vincristine] + Cc1cc(SCc2sc(-c3ccc(C(F)(F)F)c(F)c3)nc2C)ccc1OCC(=O)O [GW0742] (first compound 0.0001 µM, partner dose 2 µM)",48.8%
4,"Cc1ccc(Nc2nccc(N(C)c3ccc4c(C)n(C)nc4c3)n2)cc1S(N)(=O)=O [Pazopanib] + C/C(O)=C(\C#N)C(=O)Nc1cc(Br)ccc1Br [LFM-A13] (first compound 0.4 µM, partner dose 2 µM)",105%
5,"COc1cc([C@@H]2c3cc4c(cc3[C@@H](O[C@@H]3O[C@@H]5CO[C@@H](C)O[C@H]5[C@H](O)[C@H]3O)[C@H]3COC(=O)[C@H]23)OCO4)cc(OC)c1O [etoposide] + Cc1cc(SCc2sc(-c3ccc(C(F)(F)F)c(F)c3)nc2C)ccc1OCC(=O)O [GW0742] (first compound 0.02 µM, partner dose 2 µM)",102%
6,"Cc1cc(Nc2cc(N3CCN(C)CC3)nc(/C=C/c3ccccc3)n2)n[nH]1 + Cc1cc(SCc2sc(-c3ccc(C(F)(F)F)c(F)c3)nc2C)ccc1OCC(=O)O [GW0742] (first compound 0.04 µM, partner dose 2 µM)",98.9%
7,"Cn1cnc2c(F)c(Nc3ccc(Br)cc3Cl)c(C(=O)NOCCO)cc21 [selumetinib] + C/C(O)=C(\C#N)C(=O)Nc1cc(Br)ccc1Br [LFM-A13] (first compound 0.015 µM, partner dose 2 µM)",100%
8,"NC(=O)c1ccc(N(C(N)=O)c2c(F)cccc2F)nc1-c1ccc(F)cc1F + C/C(O)=C(\C#N)C(=O)Nc1cc(Br)ccc1Br [LFM-A13] (first compound 0.4 µM, partner dose 2 µM)",104%
9,"O=C(O)[C@@H]1[O][Sb](=[O])([O][Sb]2(=[O])[O][C@H]([C@H](O)CO)[C@H](O)[C@H](C(=O)O)[O]2)[O][C@H]([C@H](O)CO)[C@@H]1O (some centres undefined) [stibogluconate] + O=C(Oc1ccc([N+](=O)[O-])cc1)N1CCC(C(O)(c2ccc3c(c2)OCO3)c2ccc3c(c2)OCO3)CC1 [JZL184] (first compound 2 µM, partner dose 1 µM)",97.2%
10,"Cc1ccc(Nc2nccc(N(C)c3ccc4c(C)n(C)nc4c3)n2)cc1S(N)(=O)=O [Pazopanib] + O=C(Oc1ccc([N+](=O)[O-])cc1)N1CCC(C(O)(c2ccc3c(c2)OCO3)c2ccc3c(c2)OCO3)CC1 [JZL184] (first compound 0.4 µM, partner dose 1 µM)",91.3%
11,"CNC(=O)c1cc(Oc2ccc(NC(=O)Nc3ccc(Cl)c(C(F)(F)F)c3)cc2)ccn1 [sorafenib] + O=C(Oc1ccc([N+](=O)[O-])cc1)N1CCC(C(O)(c2ccc3c(c2)OCO3)c2ccc3c(c2)OCO3)CC1 [JZL184] (first compound 0.4 µM, partner dose 1 µM)",87.4%
12,"CNC(=O)c1cc(Oc2ccc(NC(=O)Nc3ccc(Cl)c(C(F)(F)F)c3)cc2)ccn1 [sorafenib] + C/C(O)=C(\C#N)C(=O)Nc1cc(Br)ccc1Br [LFM-A13] (first compound 0.4 µM, partner dose 2 µM)",94.9%
13,"CCCS(=O)(=O)Nc1ccc(F)c(C(=O)c2c[nH]c3ncc(Cl)cc23)c1F + O=C(Oc1ccc([N+](=O)[O-])cc1)N1CCC(C(O)(c2ccc3c(c2)OCO3)c2ccc3c(c2)OCO3)CC1 [JZL184] (first compound 0.08 µM, partner dose 1 µM)",109%
14,"CCCCCCCCc1ccc(CCC(N)(CO)CO)cc1 [fingolimod] + O=C(Oc1ccc([N+](=O)[O-])cc1)N1CCC(C(O)(c2ccc3c(c2)OCO3)c2ccc3c(c2)OCO3)CC1 [JZL184] (first compound 2 µM, partner dose 1 µM)",91.4%
